The list shows a part of the results.
T1: UNK ZnF1-3 (human, UniProt Q9C0B0 31-174)
T1 sequence: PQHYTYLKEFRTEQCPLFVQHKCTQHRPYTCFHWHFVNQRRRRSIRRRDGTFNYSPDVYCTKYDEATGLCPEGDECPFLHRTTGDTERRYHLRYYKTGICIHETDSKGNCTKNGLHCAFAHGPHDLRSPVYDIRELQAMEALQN

B1: chr16:94690093:94690094:+_ENSMUSG00000040785_ENSMUST00000117648|mus_hu|mus_mus_mus_hu_True|18_28 (ssRNA)
RNA: GGGAGUUCUACAGUCCGACGAUCGGGCUGGGAUGACGGACACACAGCCUCGAUUCCAGGGGGAAAAAGUCUUAGUCGAUACUAAUUAAAAAGUGUUAAUGAUUUUUAUUACCAAAAUGUAGAUUAAAAAAGAUGAAAAGCAAACAACAGAGGAUUGAGCAUCA
B2: 13601392_13601512_7207_CDS_ENSG00000038219_ENST00000040738|human|control|control (ssRNA)
RNA: GGGAGUUCUACAGUCCGACGAUCGCUGGGCAUGGGGACCUUGUGCUUGCUCACUUCUGUGGCUGACAGGUCACCGUUCCCUUCUGGGUUGUCUGCAGUCAGCUGAUUCUCUUCAUGUCUGUCAAUGCUGGCGGAAAUUGGCAUCAACAGAGGAUUGAGCAUCA
B3: chr4:57860909:57860910:+_ENSG00000047315_ENST00000314595|hu_mus|FALSE|FALSE (ssRNA)
RNA: GGGAGUUCUACAGUCCGACGAUCAUCUGUUAAGCCAUUUAACAGGCAGUAGGUGGAGCGCAGCAUAAUUGGAAUUUUCCCUAUGAACGUUUUCUGGUGCUGAGUCUGCAGCUGUUCUUCACCUUCUUUAAUGACUGUCUUUGUCAACAGAGGAUUGAGCAUCA
B4: chr4:48472875:48472876:-_ENSMUSG00000028345_ENSMUST00000030030|mus_mus|FALSE|FALSE (ssRNA)
RNA: GGGAGUUCUACAGUCCGACGAUCACUGUUCAAUCUAGUGCCACCUUUAAGGGUCUCCGUCACAAACUUCCUUAUUGUUUCUAUCCAACUGGAAUCAUUCUGUAAGGUUGAAGCAUUUGCCAGCGAGACCAUGAUAUCAGACAGCAACAGAGGAUUGAGCAUCA
B5: chr12:2981354:2981355:-_ENSG00000111206_ENST00000359843|hu_mus|FALSE|FALSE (ssRNA)
RNA: GGGAGUUCUACAGUCCGACGAUCGCAGGGGCCCAGCCCGUCAGAACUCAUCUUUCCAAGCCACUGGAUAUUGGUUAAGCUGUUGUCCAGCGUGCAGCCUGCCGCCUCACCACCAGCAUAGCUCUCCUGUCUUUGCCUUGGAGGCAACAGAGGAUUGAGCAUCA
B6: chr3:158399885:158399886:+_ENSG00000168827_ENST00000264263|hu_hu|motif|central (ssRNA)
RNA: GGGAGUUCUACAGUCCGACGAUCUUCAUCUGAAAAUUCCAAUUUAGUGUAGUCCUCUGGGUCCAGAGGCUCCAGGACACCGGUUACUUUUCCAUACUGGCCUGCACCACCUGAUUGUUUUUUAUGUGUAAAGUCAAACGGGACCAACAGAGGAUUGAGCAUCA

target: T1, UNK ZnF1-3; test: nsRBNS (natural sequence RNA bind-n-seq); RBNS binding buffer (assumed for nsRBNS): 25 mM Tris pH 7.5, 150 mM KCl, 3 mM MgCl2, 0.01% Triton X-100, 500 ug/ml BSA, 20 U/ml SUPERase-In, 4 C; UNK is unkempt and MSI1 is Musashi-1; names of the RNAs are library labels; protein concentration not given here; high values mean tight binding

Binder | binding signal [enrichment R]
B1 | 2.72
B2 | 0.283
B3 | 0.561
B4 | 0.859
B5 | 0.503
B6 | 0.989
